Values marked as one replicate rest on one cluster of the flow cell; about a third of the high ones do not repeat.
Each sequence was assayed on ATP (assay: switch fluorescence ratio, 500 uM ATP over buffer (Cy3 cluster intensity, sum of 5 cycles each) (fold (ratio)); higher = stronger signal-on switching upon ATP binding; sequences stand for … in TCGTCGGCAGCGTCAGATGTGTATAAGAGACAGTTTTTTTTTTTTTTTTTTTTTTTTT…TC). Settings: aptamer strand: ATP DNA aptamer (quencher-CACCTGGGGGAGTATTGCGGAGGAAGG + anchor), 100 nM annealed; ATP concentration: 500 uM; one replicate.
In short: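 Cy3-labelled switching-strand clusters on a modified Illumina MiSeq flow-cell were annealed to 100 nM quencher-labelled ATP aptamer and imaged first in selection buffer, then after 15 min with 500 uM ATP at 22 °C. NaOH stripping and re-annealing separated each of five buffer/ATP cycles, and clusters outside 100-1000 RFU were excluded. The fluorescence ratio sums target-cycle Cy3 intensity over buffer-cycle Cy3 intensity per cluster and averages it per switch-domain sequence.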
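Further: ATP exposure 15 min at 22 °C before imaging.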

| Sequence | switch fluorescence ratio |
| --- | --- |
| ATAGGAGGAA | 1 |
| ATAGGATACG | 1.11 |
| ATAGGATGTT | 0.981 |
| ATAGGCCCGT | 0.976 |
| ATAGGCGCCG | 1.01 |
| ATAGGCTCA | 1.01 |
| ATAGGGTCGC | 0.972 |
| ATAGGGTTAA | 1.08 |
| ATAGGTGGCT | 0.989 |
| ATAGGTGTGC | 1.05 |
| ATAGTAGCTG | 0.996 |
| ATAGTAGTAT | 0.941 |
| ATAGTCAATG | 0.995 |
| ATAGTCGAAG | 1 |
| ATAGTCGGAT | 1 |
| ATAGTTATCA | 0.999 |
| ATAGTTCTCA | 0.97 |
| ATAGTTGAAG | 0.997 |
| ATATAACCGG | 0.98 |
| ATATAAGACC | 1.02 |
| ATATAATAAT | 1 |
| ATATAATCGA | 0.976 |
| ATATACAACT | 1.07 |
| ATATACCGGT | 1.01 |
| ATATAGCGAC | 1.12 |

| Sequence | switch fluorescence ratio |
| --- | --- |
| ATATATATGA | 0.959 |
| ATATATTCTG | 1.01 |
| ATATATTGAT | 1.03 |
| ATATCAACTA | 1.01 |
| ATATCACGGA | 1.05 |
| ATATCACTAA | 1.04 |
| ATATCAGGAG | 1.01 |
| ATATCAGTAA | 0.978 |
| ATATCCCACG | 1.04 |
| ATATCGACGC | 1.48 |
| ATATCGGACG | 1.05 |
| ATATCGTAGT | 1.01 |
| ATATCTAGCT | 1.01 |
| ATATCTTCAA | 0.971 |
| ATATGACTGT | 0.964 |
| ATATGCCCTG | 1.03 |
| ATATGCCGTT | 1.03 |
| ATATGCGCCA | 0.997 |
| ATATGCGGTA | 1.01 |
| ATATGGGAG | 1.03 |
| ATATGGGTTG | 1.03 |
| ATATGGTTAA | 1.02 |
| ATATGGTTTA | 1.01 |
| ATATGTAGGC | 1.02 |
| ATATGTCACT | 1 |

| Sequence | switch fluorescence ratio |
| --- | --- |
| ATATGTCTAC | 1.03 |
| ATATGTGTTC | 0.966 |
| ATATTACATT | 1.06 |
| ATATTACCCG | 1.01 |
| ATATTACGCT | 1.03 |
| ATATTCATGA | 1.01 |
| ATATTCATTT | 0.974 |
| ATATTCGTGG | 1.01 |
| ATATTGCTC | 1.18 |
| ATATTGGCCT | 1.1 |
| ATATTTAAGA | 1.03 |
| ATATTTACGT | 1.38 |
| ATATTTGCAG | 0.943 |
| ATATTTTGCG | 1.03 |
| ATCAAAATAT | 1.13 |
| ATCAAAGTTC | 0.999 |
| ATCAACGTAA | 1.2 |
| ATCAAGATGG | 0.985 |
| ATCAAGCGTT | 0.966 |
| ATCAATTGCG | 1.04 |
| ATCACCAGTT | 1.02 |
| ATCACCGAAG | 1.05 |
| ATCACCGTCC | 1.82 |
| ATCACTAGAC | 1.08 |
| ATCACTTTGA | 1.01 |

| Sequence | switch fluorescence ratio |
| --- | --- |
| ATCAGAAACG | 0.934 |
| ATCAGACTGC | 0.946 |
| ATCAGCATTC | 2.93 |
| ATCAGCTACA | 0.998 |
| ATCAGCTGGT | 0.99 |
| ATCAGGCCTC | 0.977 |
| ATCAGGGACC | 1.04 |
| ATCAGTACGC | 1.04 |
| ATCATAAAAC | 1 |
| ATCATAGACG | 1.05 |
| ATCATAGGAG | 0.975 |
| ATCATAGGCC | 1.03 |
| ATCATATCTT | 1.03 |
| ATCATATTTT | 0.946 |
| ATCATCAAAC | 0.996 |
| ATCATCAAGA | 1.01 |
| ATCATCCCCT | 1 |
| ATCATCGTCT | 0.99 |
| ATCATGCGTC | 1.07 |
| ATCATGGGCT | 0.983 |
| ATCATGGGTT | 0.987 |
| ATCATGTACG | 1.02 |
| ATCATGTATT | 1.01 |
| ATCATTTCCG | 0.994 |
| ATCATTTCGG | 0.97 |
